Source: the RNAGym collection of RNA variant scans (doi:10.7554/elife.90254)
The source gives no read counts; variants with many changes may rest on few reads.

B1: LINE1-mini (parent)
chain: GGCAGAGCUCAACACAGCGUGGCAAAGUGGCUGUGGCUAGACUGCC

Variants of: B1
Test: self-cleavage, relative activity (ratio to wild type); higher = more cleavage; in vitro, sequencing; the parent is a self-cleaving ribozyme

Variant | self-cleavage
G5C G7C G17U A41C | 0.04
G5C G7C U9A | 0.03
G5C G7U A11C U34C G36A | 0.05
G5C G7U A24U G44U | 0.03
G5C G7U C13A C42G | 0
G5C G7U C18A A24C G30C G33C G35C | 0.04
G5C G7U C18A U34C | 0.05
G5C G7U C42A | 0.3
G5C G17A C31A U32C | 0.04
G5C G17C C18A G27U G36A | 0.04
G5C G17C U20A G21U A24U C46A | 0
G5C G17C U20G | 0.03
G5C G17U C23G | 0.02
G5C G17U G40C | 0.05
G5C G19A A24C G30U | 0.04
G5C G19C G21U A39C | 0.02
G5C G19C G21U G30C C42U | 0.04
G5C G19C U32A | 0.01
G5C G19C U43G C45U | 0.01
G5C G19U C23G G35A | 0.02
G5C G19U G22A | 0.07
G5C G19U G22A G36A | 0.09
G5C G19U G30A C37G C46U | 0.04
G5C G21A G22U U34A | 0.04

Variant | self-cleavage
G5C G21A G27A G36A | 0.05
G5C G21A G27C | 0.16
G5C G21A G30U U38A | 0.01
G5C G21A U28G G29C G35A | 0.01
G5C G21U A41C | 0.08
G5C G22A G29A U34A | 0.23
G5C G22C A26G U28G | 0.01
G5C G22C G40A C45A | 0.04
G5C G22U A26C G40C C42G | 0.06
G5C G22U G27A G35C | 0.04
G5C G22U U28C U34C | 0
G5C G27A G35A | 0.05
G5C G27C C46A | 0.07
G5C G27C G35U C37G | 0.12
G5C G27C G40C | 0.2
G5C G27C U43C | 0.04
G5C G27U C45A | 0.12
G5C G29U C37U | 0.04
G5C G29U C42A | 0.02
G5C G29U G40A | 0.06
G5C G29U U34A | 0.18
G5C G30U G40A G44A | 0.04
G5C G33U C37A | 0.04
G5C G35A C45A | 0.05

Variant | self-cleavage
G5C G36A C37U | 0.67
G5C G40A G44C | 0.04
G5C G40U U43A | 0.02
G5C U9A A14U C15G C45A | 0.04
G5C U9A A26C | 0.03
G5C U9A C13U G19U G21C U38G | 0.05
G5C U9A C15U G22C | 0.06
G5C U9A C18G U32A | 0.06
G5C U9C G27U | 0.02
G5C U9G A25C | 0.07
G5C U9G C31U | 0.02
G5C U9G G30C G36A G40U | 0.01
G5C U20A A41G | 0.02
G5C U20C U28C G29U A39G C45U | 0
G5C U20G G21U | 0.02
G5C U28A G29U A41C | 0.04
G5C U32A G40U | 0.02
G5C U38G A41C | 0.04
G5U A6C A16G C18G C23U G30U | 0.01
G5U A6C G7A C10U G30U C31G G44A | 0.16
G5U A6C G7C U9C C18U G21U A24G U34G | 0.01
G5U A6G A24C C37A | 0.04
G5U A6G C31U G40A | 0
G5U A6G U9A C18G G44U | 0.01

Variant | self-cleavage
G5U A6G U32G C46U | 0.04
G5U A6U A26U C31U C46U | 0.03
G5U A6U C8G U34C | 0.02
G5U A6U C10U G17U U38G G40A | 0.07
G5U A6U C13G G19C G30U | 0.1
G5U A6U C15A A26C | 0.04
G5U A6U G30U C37A | 0.04
G5U A11C G44A | 0.02
G5U A11C U38A | 0.02
G5U A11G A12U | 0.09
G5U A11G C13A C15A | 0.01
G5U A11G G22C | 0.02
G5U A11G G33U | 0.02
G5U A11U C13U A39U G40A A41C U43G | 0.01
G5U A11U C45U | 0.01
G5U A12C A25U G36A | 0.02
G5U A12C C46A | 0.02
G5U A12G A25G | 0.07
G5U A12G C18G G21U | 0.02
G5U A12G C23U G30U A39U | 0.02
G5U A12G G22A G29A U43A G44U | 0.02
G5U A12G G22U C31G | 0.03
G5U A12G G29C G40U | 0.06
G5U A12U G17U C23A C46G | 0.01

Variant | self-cleavage
G5U A12U G22A U34G C37A | 0.02
G5U A14C U32G | 0.03
G5U A14C U43C | 0.07
G5U A14G A39U | 0.01
G5U A14G C31A | 0.04
G5U A14G G17U U43A C45A | 0.05
G5U A14G G27C A41U | 0.04
G5U A14G U20A A26G | 0.06
G5U A14U A16C G29U U32A | 0.11
G5U A14U G29C | 0.65
G5U A16G C42A | 0.12
G5U A16G G29U G35C G40A | 0.1
G5U A16G G44C | 0.01
G5U A16G U43A G44C | 0
G5U A16U A26C A41C C46G | 0
G5U A16U G36A | 0.03
G5U A24C A25C | 0.01
G5U A24G A41G | 0.02
G5U A24G G27C U34G C37G | 0.01
G5U A24U G35C U43C | 0.06
G5U A24U U28C U38G G44U | 0
G5U A25C C37G | 0.03
G5U A25C G36U C42G | 0
G5U A25C U28C | 0.06

Variant | self-cleavage
G5U A25G G29A U38A | 0.01
G5U A26C G30C | 0.05
G5U A26G G30U | 0.05
G5U A41C C46U | 0.07
G5U A41U C46A | 0.13
G5U C8A A11G G22A G44C | 0.02
G5U C8A C10A A26U G29U U34G | 0.03
G5U C8A C18U C37G | 0.11
G5U C8A G17C C31G U34C C46A | 0.38
G5U C8A G17U | 0.11
G5U C8A G21C G36A | 0.96
G5U C8A G22A C31G | 0.14
G5U C8A G29A | 0.02
G5U C8A G33A G36A G44U | 0.12
G5U C8A U28C C31U | 0.13
G5U C8G A14C A39C G40C | 0.02
G5U C8G C10A A16U | 0.01
G5U C8G C10G U38A | 0.03
G5U C8G C13G C23A | 0.15
G5U C8G C15G C23U U28A U34G | 0.04
G5U C8G C18G C37G U43A | 0.04
G5U C8G C18U | 0.08
G5U C8G G17C | 0.05
G5U C8G G17U A26G | 0.09

Variant | self-cleavage
G5U C8U A11C G30U G35A | 0.01
G5U C8U A12U A16G G36A G44A | 0.02
G5U C8U A14G G35U C45A | 0.41
G5U C8U A24C | 0.17
G5U C8U A39C | 0.39
G5U C8U C10U G22U A25G U32A G35C | 0.01
G5U C8U C15G G29U | 0.07
G5U C8U G21A G29A A39G | 0.02
G5U C10A A12C | 0.04
G5U C10A A12C C15A | 0.01
G5U C10A A12G G19U G29C C31G | 0.01
G5U C10A A16C | 0.03
G5U C10A A16C G29U C42A | 0.01
G5U C10A A16G G27C G44A | 0.02
G5U C10A A24C | 0.05
G5U C10A C15U C45G | 0.02
G5U C10A G17U C37G A39U | 0
G5U C10A G21A G27U G35C C45A | 0
G5U C10A G22A | 0.03
G5U C10A U32G | 0.08
G5U C10G A12G C13G G40C | 0.01
G5U C10G A14C U20A | 0.01
G5U C10G G17C G22U A25C A26G G29A | 0.01
